Some of the results follow.

The test deals with T1, C. trachomatis L2/434/Bu expressing GFP (CTL2-GFP).
T1 construct: L2/434/Bu GFP intracellular growth in HeLa cells
The arrangement: species or system HeLa; C. trachomatis total inclusion area by high-content imaging, normalised to DMSO. The note with it: total inclusion area; 28.5 h, 10 µM; inhibitor. The method, boiled down: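 Imaging read-out: GFP inclusions and Hoechst nuclei captured by high-content imaging after fixation. Inclusion area/number = chlamydial growth; nuclei count = host cell viability. MIC calculated per earlier method.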
In the case of `COCCn1cc(C(=O)N2CCCC2c2cc(C)on2)c2ccccc21` (stereo not drawn) [CBK305289], the “% of control remaining” value is reported as 37.716.

For `COC[C@H]1CCCN1C(=O)CC[C@H]1CNC(=O)[C@@H]2[C@@H](CCN2C(C)C)N1C` [CBK289038], the “% of control remaining” value was determined as 81.8545. Take `FC(F)(F)c1cccc(Sc2cccs2)n1` [CBK115242]: the “% of control remaining” value stood at 97.0878. As for `O=c1[nH]c2ccccc2n1CCCN1CCC(Oc2cncc(OCC3COc4ccccc4O3)n2)C1` (stereo not drawn) [CBK084380], the “% of control remaining” value is 94.325.

For `Cc1nn(-c2ccccn2)c(C)c1[C@@H]1C=C[C@@H](NC(=O)CCC(=O)O)C1` [CBK289170], the “% of control remaining” value was 86.3311. As to `Cc1cccc2c1OCC[C@@H]2Oc1cncc(N2CCNCC2)n1` [CBK172310G], the “% of control remaining” value came to 70.7051.

`COc1cccc(C(=O)N2CCC(NC(=O)Cc3ccc(F)cc3)CC2)c1` [CBK155027]: the “% of control remaining” value worked out at 87.2425.

On to `O=CN1CCc2c([nH]c3cc(F)ccc23)C12CCN(CCc1ccc3c(c1)OCO3)CC2` [CBK039614], for which the “% of control remaining” value was 69.1079. Then `Cc1c(Cc2ccccc2)c(N2CCN(C3c4ccccc4-c4ccccc43)CC2)n2c(nc3ccccc32)c1C#N` [CBK263124], with 91.8308; and `O=C(NCc1c(OC(=O)c2cccc([N+](=O)[O-])c2)ccc2ccccc12)c1ccccc1` [CBK260919], with 88.4163; and `CS(=O)(=O)N[C@H]1CO[C@H]2[C@@H]1OC[C@@H]2Nc1nccc(-c2ccco2)n1` [CBK289525], with 110.27. Next, `Cc1ccc2n1CCN(C(=O)c1cc(-c3ccccn3)n[nH]1)C2C(C)C` (stereo not drawn) [CBK282447]: 136.687; `CC(C)c1ccc(S(=O)(=O)Nc2cccc(SC(F)(F)F)c2)cc1` [CBK044581]: 45.1636. Next, `COc1ccc(C(O)Cc2nc3ccccc3n2Cc2ccc(Cl)cc2)cc1` (stereo not drawn) [CBK262143]: 99.9409; `COc1ccc(CCNC(=O)N2CCCC2C(=O)O)cc1` (stereo not drawn) [CBK161386]: 54.1816; `CC(=O)NCCc1nc2cc(NC(=O)c3ccc([N+](=O)[O-])cc3)ccc2n1C` [CBK268368]: 99.0406. Take `CS(=O)(=O)N1CCC(C(=O)NC(c2ccc(F)cc2)c2ccccn2)CC1` (stereo not drawn) [CBK059696]: the “% of control remaining” value amounted to 91.2526. In the case of `O=C(Oc1ccc2c(c1)C1C=CCC1C(C(=O)O)N2)c1ccc(Cl)cc1Cl` (stereo not drawn) [CBK265285], the “% of control remaining” value is on record as 98.9285. Consider `CC(C)(C)N1C(=O)c2ccc(C(=O)NNC(=O)C(C#N)C(=O)c3ccc4c(c3)C(=O)N(C(C)(C)C)C4=O)cc2C1=O` (stereo not drawn) [CBK268652], for which the “% of control remaining” value turned out to be 111.48.

On to `O=C(Nc1cccc2ccccc12)c1ccc(CSCc2ccccc2)cc1` [CBK263759], for which the “% of control remaining” value was 95.3213. Next, `CC(=O)Nc1ccc(C(=O)N2CCCC(c3cccc(Cc4ccc(Cl)cc4)n3)C2)cc1` (stereo not drawn) [CBK286134]: 94.185. Next, `Cc1ccc(NC(=O)c2cnccn2)c(C)n1` [CBK200291]: 107.165; `Cc1ccn(-c2ccc(N3CCOC4(CCCC4)C3)nn2)n1` [CBK305262]: 16.1212; `Cn1c2c(c(=O)n(C)c1=O)[C@H]1[C@H](O)[C@H](O)C[C@H]1C1(CCC1)N2` [CBK303250]: 108.163.

For the molecule `N/C(=N/OCC(=O)Nc1cccc2ccccc12)c1nonc1N` [CBK265234], the “% of control remaining” value amounted to 86.6785. As to `Fc1ccccc1CN(CCCn1ccnc1)Cc1ccncc1` [CBK282981], the “% of control remaining” value came to 115.105. Next, `Oc1ccc2ccccc2c1/C=N/Nc1nnn[nH]1` [CBK262028]: 63.0595. As to `COc1ccc(C2=C3NN=C(N)N3NN2)cc1` [CBK093662], the “% of control remaining” value stood at 76.0455. Then `CSCCN1CCCC2(CCN(C(=O)c3ccoc3)C2)C1` (stereo not drawn) [CBK132835], with 79.05; and `OC(c1cccs1)C1CCN(Cc2ccc(-n3cncn3)cc2)CC1` (stereo not drawn) [CBK306523], with 52.3585. As to `CCN1CCCC1CNC(=O)c1ccc(C)nc1NCCCn1ccnc1` (stereo not drawn) [CBK076382], the “% of control remaining” value is 111.606. `Cc1noc([C@@H]2C[C@H](NS(=O)(=O)c3ccc(C#N)cc3)CN2C)n1` [CBK288874]: the “% of control remaining” value came to 110.912.

`Cc1cccnc1C(c1ccc(F)cc1)N(C)C(=O)C1CCN(C(=O)OCc2ccccc2)CC1` (stereo not drawn) [CBK060095]: the “% of control remaining” value came to 98.355. Regarding `CCCCSc1nnc2c(n1)OC(/C=C/c1ccc([N+](=O)[O-])o1)Nc1ccccc1-2` (stereo not drawn) [CBK262565], the “% of control remaining” value is 67.3076. `c1ccc(-c2cnc(C3CCCCC3)o2)cc1` [CBK008192]: the “% of control remaining” value is listed as 48.1545. Next, `COc1ccc(CCNC(=O)c2n[nH]c(=O)c3ccccc23)cc1OC` [CBK270160]: 73.9522; `COc1ccc2c(c1)CCC1(C)C2=C(C(=O)O)CC1O` (stereo not drawn) [CBK022814]: 65.5; `CC(C)[C@H](CO)Nc1nc(-c2cccc(OC(F)(F)F)c2)cnc1N` [CBK063957]: 110.648. `Brc1c(OCc2ccccc2)ccc2[nH]ccc12` [CBK160845]: the “% of control remaining” value came out at 34.6617. Then `O=C(NCCn1nc(-c2ccco2)ccc1=O)C1CCCCC1` [CBK283743], with 74.9129.

As to `CN1C[C@@H](NS(C)(=O)=O)C[C@H]1c1nc(-c2ccc3ccccc3c2)no1` [CBK288859], the “% of control remaining” value stood at 110.044. Then `C=CCn1c(NCc2ccccc2NS(=O)(=O)c2ccc(C)cc2)nc2ccccc21` [CBK266393], with 141.456; and `CC(NC(=O)c1ccc(=O)n(C)n1)c1ccc2c(c1)CCCC2` (stereo not drawn) [CBK281416], with 87.0693. For the molecule `CCc1noc(C)c1C(=O)NCCN(C)C` [CBK268118], the “% of control remaining” value is 110.51. Next, `Cc1ccc(C(=O)NCC(c2ccccc2Cl)N2CCOCC2)c(=O)[nH]1` (stereo not drawn) [CBK305928]: 82.1414; `CCCC(=O)NC[C@H]1CC[C@H](c2ccnc3cc(C)nn32)CC1` [CBK283474]: 101.336.

Regarding `CN1C(=O)c2ccc(NS(C)(=O)=O)cc2C1=O` [CBK038158], the “% of control remaining” value is 89.9708. For `CCn1c(SCC(=O)Nc2ccccc2OC)nnc1-c1ccc(N)cc1` [CBK265859], the “% of control remaining” value was determined as 141.209. On to `CC(C)(C)OC(=O)N1CCC(c2nc(-c3cccnc3)no2)CC1` [CBK304332], for which the “% of control remaining” value was determined as 77.3269.

As for `Cc1cc(S(=O)(=O)Nc2ccc(C(C)(C)C)cc2)sc1C(=O)O` [CBK297946], the “% of control remaining” value is given as 123.5. For the molecule `COc1cc(NC(=O)CC2NC3CCCCC3NC2=O)cc(OC)c1OC` (stereo not drawn) [CBK270012], the “% of control remaining” value is 114.335. Then `COc1ccc(OC)c(-n2c(S)nnc2Cn2c(-c3ccccn3)nc3ccccc32)c1` [CBK269320], with 95.9449. For `COCCCn1c(=O)[nH]c2ncc(-c3ccc(C(=O)N4CCOCC4)cc3)nc21` [CBK064366], the “% of control remaining” value is recorded as 88.2436. Next, `Cc1cc(C)nc(SCC(=O)Nc2cc(C(=O)O)cc([N+](=O)[O-])c2)n1` [CBK268937]: 102.896; `Cc1ncc(CN(C)C(=O)Nc2cccc(C(=O)N3CCOCC3)c2)s1` [CBK305984]: 90.9093. Take `O=C(CSc1nccn1C1CC1)Nc1ccc(CN2CCOCC2)cc1` [CBK306071]: the “% of control remaining” value was found to be 77.0418. `CCC(C)(C)C1CCC(NC(=O)CSCCC(=O)O)CC1` (stereo not drawn) [CBK296674]: the “% of control remaining” value is listed as 115.835. Then `Cc1cc(C)n(CC(=O)N2CCCC2c2cc3cccnc3[nH]2)n1` (stereo not drawn) [CBK285074], with 65.2397. For the molecule `COc1cc(NC(=O)NCc2cncn2CC(C)C)c2ncccc2c1` [CBK307182], the “% of control remaining” value came to 87.9717. Next, `COCc1cc(C)nc(NCCO)c1C#N` [CBK262556]: 89.9944. As to `NC(=O)CN1CC2(CCN(Cc3cccc(C(F)(F)F)c3)CC2)c2ccccc21` [CBK126776], the “% of control remaining” value was 91.0744. Then `Cc1ccc(NC(=O)CSc2nnc(COc3ccc(Cl)cc3Cl)o2)cc1Cl` [CBK264113], with 102.994. Next, `CCN(CC)C(=O)CN1CCC(Oc2nccnc2OC2CCCCC2)CC1` [CBK082866T]: 99.1449; `CC1CCC(C(N)=O)CN1c1cc(Br)ccn1` (stereo not drawn) [CBK304856]: 47.2589; `COc1ccc([C@@]23CC[C@@H](NC(=O)Nc4c(F)ccc(F)c4Cl)C[C@@H]2N(C)CC3)cc1OC` [CBK073769T]: 101.206.

`CCc1ocnc1C(=O)NC1CCCN(Cc2ccccc2F)C1` (stereo not drawn) [CBK306924]: the “% of control remaining” value was found to be 75.8481. Regarding `Cc1ccccc1Nc1nc(CN2CCC3(CCCOC3)C2)cs1` (stereo not drawn) [CBK304255], the “% of control remaining” value is on record as 58.9314.

As for `CCC(CC)(CC(=O)Nc1ccc2nc(C)sc2c1)C(=O)O` [CBK297882], the “% of control remaining” value is listed as 117.223. For the molecule `CCNc1cc2ccccc2c(-c2cc(C(C)C)ccc2OC)n1` [CBK073777], the “% of control remaining” value is recorded as 83.4932. Regarding `NS(=O)(=O)c1ccc(CNC(=O)c2cc(-c3cccnc3)nc3ccc(Cl)cc23)cc1` [CBK267727], the “% of control remaining” value worked out at 108.424. Next, `CCc1nc2ccc(C(=O)N(C)CCN(C)C)cn2c1N(C)Cc1nccs1` [CBK145474]: 125.75; `CCC1CCCCN1CC(=O)N1CCCC1c1nc2ccccc2[nH]1` (stereo not drawn) [CBK282695]: 109.501.

For `C[C@H](NC(=O)Cc1ccc(-c2ccccc2)cc1)c1nc2ccccc2[nH]1` [CBK296998], the “% of control remaining” value is on record as 32.1222. On to `O=C(NCc1ccccc1)c1ccc(NCc2ccccc2)c([N+](=O)[O-])c1` [CBK074547], for which the “% of control remaining” value was determined as 65.2166. As to `CCCc1oc(C(=O)O)cc1CN(CC)CC` [CBK267943C], the “% of control remaining” value was 103.946. Then `O=C(CCc1ccc(F)cc1)N1CCC(CC(=O)N2CCN(c3ccccc3)CC2)CC1` [CBK286245], with 85.7124; and `CC(C)(C)c1ccc(-c2nnc(SCC(=O)c3ccc(F)cc3)o2)cc1` [CBK067988], with 107.846; and `O=C(N[C@H]1CCN2C(=O)c3cc(-c4ccsc4)ccc3NC(=O)[C@H]12)c1cccc(F)c1` [CBK289339], with 100.782.

The values are drawn from publication PMC12040169 (PLOS Biology, 2025).
